# Screen size: about 310,000 compounds; about 14,000 (4.5%) showed an effect of 50% or more. The effect is printed as a negative number. Some of the results follow.
# Biological target: human ether-à-go-go-related gene (hERG) potassium channel (human, UniProt Q12809)
# Test: primary screen, population patch clamp on CHO cells stably expressing hERG
# 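Further: peak tail current of the secondary pulse compared with the same well before compound.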
# human ether-à-go-go-related gene (hERG) potassium channel, sequence (Q12809 whole entry, looked up): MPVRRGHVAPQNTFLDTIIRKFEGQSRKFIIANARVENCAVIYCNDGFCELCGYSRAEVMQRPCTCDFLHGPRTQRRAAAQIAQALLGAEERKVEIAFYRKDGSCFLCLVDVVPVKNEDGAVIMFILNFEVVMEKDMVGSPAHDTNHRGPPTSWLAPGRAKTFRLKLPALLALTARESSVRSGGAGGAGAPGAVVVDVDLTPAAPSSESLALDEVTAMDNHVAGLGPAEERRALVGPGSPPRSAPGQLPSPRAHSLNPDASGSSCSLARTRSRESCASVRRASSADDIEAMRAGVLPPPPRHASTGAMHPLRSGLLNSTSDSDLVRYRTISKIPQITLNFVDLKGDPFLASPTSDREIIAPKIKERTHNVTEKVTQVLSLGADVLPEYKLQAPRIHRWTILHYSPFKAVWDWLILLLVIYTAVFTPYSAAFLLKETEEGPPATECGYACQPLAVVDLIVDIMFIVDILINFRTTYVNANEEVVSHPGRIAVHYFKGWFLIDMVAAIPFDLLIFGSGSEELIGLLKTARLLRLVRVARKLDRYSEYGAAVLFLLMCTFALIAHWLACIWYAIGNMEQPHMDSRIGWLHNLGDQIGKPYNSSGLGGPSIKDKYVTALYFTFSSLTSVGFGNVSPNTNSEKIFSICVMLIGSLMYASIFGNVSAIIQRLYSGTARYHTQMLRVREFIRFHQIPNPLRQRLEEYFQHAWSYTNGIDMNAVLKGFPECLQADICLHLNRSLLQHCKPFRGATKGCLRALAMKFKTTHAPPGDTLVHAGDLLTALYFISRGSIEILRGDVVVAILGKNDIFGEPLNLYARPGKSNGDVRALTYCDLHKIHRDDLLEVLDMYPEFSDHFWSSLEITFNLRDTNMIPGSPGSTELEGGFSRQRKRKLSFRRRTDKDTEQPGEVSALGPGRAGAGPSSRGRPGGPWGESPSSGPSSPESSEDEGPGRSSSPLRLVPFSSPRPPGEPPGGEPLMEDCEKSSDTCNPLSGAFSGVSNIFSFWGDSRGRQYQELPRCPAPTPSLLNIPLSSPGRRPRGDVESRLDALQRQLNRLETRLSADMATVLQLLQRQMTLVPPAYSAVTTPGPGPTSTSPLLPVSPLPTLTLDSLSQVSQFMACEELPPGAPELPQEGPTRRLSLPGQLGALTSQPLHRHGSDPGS
row,Compound,"hERG current change (%, negative = inhibition) at 10uM"
1,CCc1nnc(NS(=O)(=O)c2ccc(N/C=C/C(=O)c3ccc(OC)cc3)cc2)s1,8.4%
2,Cc1ccc(NC(=O)C2OCCc3ccccc32)cc1C (stereo not drawn),-3.78%
3,Cc1ccc(N(CC(=O)Nc2cc(C)cc(C)c2)S(=O)(=O)c2c(C)noc2C)cc1,6.82%
4,CC(=O)Nc1ccc(N2CCN(Cc3ccccc3F)CC2)cc1,-25.7%
5,Cc1c(NC(=S)NC(=O)c2cccc(Br)c2)c(=O)n(-c2ccccc2)n1C,8.41%
6,COc1cccc(C(=O)NCCS(=O)(=O)N2CCCCCC2)c1,-10.5%
7,Cc1noc(C)c1S(=O)(=O)N(CC(=O)NCc1ccc(F)cc1)c1ccc(C(C)C)cc1,13.8%
8,CC1CCCCC1NC(=O)C(C)N1C(=O)c2ccccc2C1=O (stereo not drawn),-1.72%
9,CCOc1cccc2sc(NC(=O)c3ccc(Br)s3)nc12,18.6%
10,COc1cc(OC)cc(-c2nc3ccccc3c(=O)n2OC(=O)c2ccc(Br)cc2)c1,11.4%
11,COc1ccccc1N1CCN(C(=O)CSc2nnc3c4ccccc4nc(Cc4ccccc4)n23)CC1,-4.18%
12,Cl.NC(=O)c1c(NC(=O)C2COc3ccccc3O2)sc2c1CCN(Cc1ccccc1)C2 (stereo not drawn),18.6%
13,CS(=O)(=O)c1ccccc1C(=O)Nc1cccc2ncccc12,14.2%
14,O=C1c2ccccc2-c2c1cccc2C(=O)N1CCN(C(=O)c2ccco2)CC1,-71.1%
15,CCc1noc(C)c1C(=O)OC(C)C(=O)NCc1ccc(OC)cc1 (stereo not drawn),-15.3%
16,CCN(CC)c1nc2ccccc2nc1C(C#N)C(=O)NCCc1ccccc1 (stereo not drawn),-1.99%
17,CN(C)C(C)(C)C#CC(O)(c1ccccc1)c1ccccc1,-26.6%
18,COc1ccc(Nc2ccc([N+](=O)[O-])cc2[N+](=O)[O-])cc1,-32.5%
19,COc1ccccc1CNC(=O)C(=O)NCC1OCCCN1S(=O)(=O)c1ccc(F)cc1C (stereo not drawn),9.82%
20,CC(=O)Nc1ccc(S(=O)(=O)N2CCC(C(=O)O)(c3ccccc3)CC2)cc1,17.8%
21,O=S(=O)(NCC(c1ccco1)N1CCN(c2ccc(F)cc2)CC1)c1ccc(F)cc1 (stereo not drawn),-0.721%
22,Cc1c(C(c2cccc(O)c2)c2c(C)n(C)n(-c3ccccc3)c2=O)c(=O)n(-c2ccccc2)n1C,13.1%
23,COc1ccc(C)cc1NC(=O)c1ccc2c(O)c(S(=O)(=O)c3ccccc3)c(=O)[nH]c2c1,8.01%
24,COc1ccc(N2C(=O)/C(=C\c3ccco3)N=C2SCC(=O)N(C(C)C)C(C)C)cc1Cl,22.7%
25,CC(=O)O.NCC(c1ccco1)c1c[nH]c2ccccc12 (stereo not drawn),8.43%
26,Cc1c(C(=O)O)cc(C(C)(C)C)n1CCSCCO,4.77%
27,COC(=O)c1c(NC(=O)CSc2nnc(-c3ccco3)n2Cc2ccccc2)sc(C)c1C,4.42%

row,Compound,"hERG current change (%, negative = inhibition) at 10uM"
1,CCC(Sc1nc2ccccc2s1)C(=O)Nc1cc(C)on1 (stereo not drawn),2.98%
2,Oc1ccccc1C1CCCCC1c1ccccc1 (stereo not drawn),12.5%
3,Cc1ccc(NC(=O)CCNC(=O)c2ccc([N+](=O)[O-])cc2)cc1S(=O)(=O)N1CCOCC1,-47.4%
4,COc1ccc(CCNC(=O)c2ccc(-c3ccc([N+](=O)[O-])cc3)o2)cc1OC,-60.7%
5,O=C(N/N=C1/CC(c2ccccc2)Oc2ccccc21)C1CC1 (stereo not drawn),-1.94%
6,Cc1ccc(-n2nc(C)c(/C=N/NC(=O)c3cccnc3)c2Cl)cc1,-1.52%
7,CCOc1ccc(-n2c(COc3ccccc3)nnc2SCC(N)=O)cc1,-13.8%
8,COc1ccc(C(=O)NCc2cnn(C)c2)cc1OC1CCN(C(C)C)CC1,21.9%
9,O=S(=O)(c1cccc(C(F)(F)F)c1)c1ccc(O)cn1,0.938%
10,S=C(NCCOCCOCCNC(=S)Nc1ccccc1)Nc1ccccc1,-15.5%
11,CCOC(=O)c1c(S(=O)(=O)Nc2cccc(-c3ccno3)c2)c(C)n(C)c1C,6.78%
12,Nc1ccc(C2(c3ccc(N)cc3)CCCCC2)cc1,22.1%
13,CCn1cnc2sc(C(=O)Nc3ccc4c(c3)OCO4)c(C)c2c1=O,0.755%
14,O=C(NCc1n[nH]c(=S)n1-c1cccc(C(F)(F)F)c1)c1ccco1,18.6%
15,CC(C)(C)n1ncc2c(=O)n(CC(=O)Nc3ccc(Cl)cc3)cnc21,-11.2%
16,Cn1c(=O)c(=O)n(C)c2cc(S(=O)(=O)N3CCN(C4CCCCC4)CC3)ccc21,-18.7%
17,CCCN(CCC)S(=O)(=O)c1ccc(NC(=O)C2CCCO2)cc1 (stereo not drawn),-64.4%
18,Cc1ccc(S(=O)(=O)N2CCN(Cc3cccc(C)c3O)CC2)cc1,16.5%
19,Cc1ccc2nc(C)cc(NCCO)c2c1.Cl,-26.4%
20,COc1ccc(OCC(=O)Nc2ccc3c(c2)C(=O)NC3=O)cc1,10.1%
21,c1ccc2c(-c3nc(C4CCCCC4)no3)cc(-c3ccncc3)nc2c1,-3.96%
22,Cc1nc2ccccn2c1C(=O)NC1CCCC1,16.2%
23,CCN(CC)CC#CCC(O)(c1ccccc1)c1ccccc1,-25.1%
24,Cc1ccc(C(=O)NCC(=O)OCCCOC(=O)CNC(=O)c2ccc(C)cc2)cc1,-1.87%
25,Nc1c(C=C2C=CC(=O)C=C2)c(=O)nc2sc(CC(=O)N3CCCC3)nn12,8.79%
26,Cc1ccc(CNc2ccc3c(c2)ncn3C(C)C)cc1,-78.3%
27,O=C(NCC1CCCO1)c1ccc(COCC(F)(F)C(F)F)cc1 (stereo not drawn),-10.5%
